The list shows a part of the results.

From the supplement of paper PMC11417369 come the findings set out here.

In this test the test system is PfHDP1 homeodomain (GST-tagged). Description: gcPBM binding intensity (ln(normalized median fluorescence intensity)); higher = stronger DNA binding. A digest of the protocol:
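The binding buffer was 1× PBS containing 1% milk, 0.2 mg/ml BSA, 0.5% salmon testes DNA and 0.03% Triton X-100. In it, GST-tagged P. falciparum DNA-binding domains expressed in E. coli were applied for 1 h to an Agilent 4 × 180k array of primer-extended double-stranded 36-bp intergenic genomic probes plus negative controls. Binding intensity, read with Alexa488 anti-GST antibody and a 488 nm scan, is the highest Masliner-normalised natural-log median intensity across replicate spots of either probe orientation.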
“CAAAATAAAAATAACACACACATTTATATAAATACA [CACACA_site4790]”: the “gcPBM binding intensity (ln)” value was found to be 6.79. The same measure for “AACAATAATTTTGAATGTACATATAAATATTTTTAT [XGTACX_site5501]”: 6.4; for “ATATACATATAGGATGCACACATAATTCAAATACAA [CACACA_site8120]”: 8.36. With “AAAAAAAAGAATAGCACACACACATATATAAATATA [CACACA_site630]”, the “gcPBM binding intensity (ln)” value was found to be 6.92. In the case of TATAATGGTTCTGGTGTGCACCATGACAGAATCAAG, the “gcPBM binding intensity (ln)” value turned out to be 9.35. The same measure for “AATAATATTTAATACGCACACAATAATAATATAAAA [CACACA_site1763]”: 7.35; for “GTGAAAGGAAAAGTTGAACACACAAAGTAAACTATA [CACACA_site9178]”: 6.55. The same measure for “TCTTATAAAGGTAATTGTACATATTTATAATTTCTT [XGTACX_site4847]”: 6.14; for “ATATATTATTATACATGTACATATATAGATATATAT [XGTACX_site4358]”: 6.57; for “CACACGCACGAACACACACACATATAAATATAAATA [CACACA_site6299]”: 7.8.

On to “TATATATATAATTAAAGTACATATAACCACAAAAAT [XGTACX_site7289]”, for which the “gcPBM binding intensity (ln)” value is 7.01. The same measure for “TAATATAATATATATACACACAAGAAATACAAAACG [CACACA_site1378]”: 7.45; for “ACATAAATTTAATACACACACAAAGAAAAAAAAAAA [CACACA_site4088]”: 6.52.

“ATATTATTATAATATACATATATATATATAATATAT [CACACA_negctrl_site480]”: the “gcPBM binding intensity (ln)” value was found to be 6.41.

Consider “AATAATAATAAATATACACACATCATACAATTAACA [CACACA_site3679]”, for which the “gcPBM binding intensity (ln)” value turned out to be 6.7. Under “TATTTTTTTCTTACTACACACATATAGATGCTTTCC [CACACA_site7825]” stands 6.73; under “GGTCTTTTCAACACACGTACATAAAAATATTATACA [XGTACX_site5360]”, 7.23. Take TAAACATATAGAGGGGTGCAAAGAATTGTAAAATTT: the “gcPBM binding intensity (ln)” value was determined as 9. For “TATATATTGATATGCACACCTATGTATTGATGTATA [CACACA_site1073]”, the “gcPBM binding intensity (ln)” value is 10.

Regarding “ACATAAAATTGTTAAAAAATTGTATAAATAATACAT [XGTACX_negctrl_site557]”, the “gcPBM binding intensity (ln)” value is 5.98.

In the case of GAAAAGCAGATAAATGTGCACATATATGTTTGTATA, the “gcPBM binding intensity (ln)” value was determined as 10.8. On to “TATAGGTATATATAAGTGCAATATATATGTATATAC [GTGCAC_site9427]”, for which the “gcPBM binding intensity (ln)” value stood at 9.51.

On to “TATTATTTTTTAAATTGTACAATAAATTATAAAAGG [XGTACX_site1162]”, for which the “gcPBM binding intensity (ln)” value is 6.39.

As to “CAGCTCTTAAAAATTACACACATATACTCATATATA [CACACA_site5757]”, the “gcPBM binding intensity (ln)” value turned out to be 6.55. The same measure for “TTATAAAAATAATATCGTACAAATGACATAGATGAA [XGTACX_site2570]”: 6.6; for “AGATATTTTATAATTACACACATGAGGTTATTTGAA [CACACA_site1999]”: 6.35; for “CATATACATAAACACACACACACATAAATAAATATA [CACACA_site4864]”: 6.9. For the sequence “ACCTAAAAGGTATAATATATAAATAAAAAAAAAAAT [CACACA_negctrl_site134]”, the “gcPBM binding intensity (ln)” value stood at 6.51. The same measure for “TATTAATCTAATTCATAAAAAATGATCTATTTTGTT [CACACA_negctrl_site1035]”: 6.03. Turning to “AAAATGAACAGACACACACACATATTTATATTTATA [CACACA_site7182]”, the “gcPBM binding intensity (ln)” value worked out at 6.65. The same measure for “TAGAATAATCTATAAACACACAAACACAACAAAAGA [CACACA_site7861]”: 7.07; for “AACATTTGATAAGATACACACACAAGGAAAAAAATA [CACACA_site8004]”: 7.01. Under “TTTTTTTCTTTATTAGCACACATAATATTATATATG [CACACA_site8841]” stands 7.28. On to “TATATCATTATATAAACACACAATATGTTTTTTATA [CACACA_site3781]”, for which the “gcPBM binding intensity (ln)” value came to 6.13. In the case of “TTAAGATATATAAAGAGTACACATAAGAGTAATGCT [XGTACX_site58]”, the “gcPBM binding intensity (ln)” value is 6.34. As for “TATAATACATTATATTGTACTATATTATAATAAATT [XGTACX_site5934]”, the “gcPBM binding intensity (ln)” value was 6.23. Under “ACAAATAAAAATATTACACACACTATTCTAGTGATA [CACACA_site6812]” stands 6.37.

Regarding “GACAAATTATTGTGTACACAATATTATTATATATAC [CACACA_site6020]”, the “gcPBM binding intensity (ln)” value stood at 7.47. Take “CTTATGTTTTTTAAGTGTACATATTATACGTATTAT [XGTACX_site1176]”: the “gcPBM binding intensity (ln)” value turned out to be 6.8. For the sequence “TAAATATATATAATTACACACTTTTCTATAATATGA [CACACA_site711]”, the “gcPBM binding intensity (ln)” value is 6.5.

Regarding “ATATCGTGTGCATTAACACACATTTATTTGAATAAA [CACACA_site7162]”, the “gcPBM binding intensity (ln)” value was found to be 9.51. The same measure for “GATATATAAATAGATACACACATACATACATACATA [CACACA_site6260]”: 7.03. The same measure for “AAAAAAAAAAAAAAAACACACATAAATAGCTCAAAT [CACACA_site3973]”: 6.69.

Turning to “CACATACCCATACAAACACACATTATATATATATAT [CACACA_site4965]”, the “gcPBM binding intensity (ln)” value worked out at 8.96.

As to “TACGATTAAAAAAAATGTACAGATTTTTATAGAATA [XGTACX_site6561]”, the “gcPBM binding intensity (ln)” value was 6.17.

As for “ATATAATTACCATATGGTACACACATATATATATGT [XGTACX_site7393]”, the “gcPBM binding intensity (ln)” value stood at 7.23. On to “TTTTGTAGCAAAAAATAGGAAAAAAAAAAATTAAAT [GTGCAC_negctrl_site8]”, for which the “gcPBM binding intensity (ln)” value came to 6.59. Under “ATATTACCCATATATGCACACATTGTAGTTATTTAT [CACACA_site2636]” stands 9.18; under TTAAGATACAAAAAAGTGCATATTTTTTAACAAAAA, 7.32; under “ATGTAGACATAATGGGGTACAAAAAAAAAAAAAAAA [XGTACX_site881]”, 6.3.

“TATCATTTTGTATATAGTACATATATAAAATCGTTA [XGTACX_site3875]”: the “gcPBM binding intensity (ln)” value was determined as 6.17. For “AAAAAAAATAAAAATAAAAATAAAAATAAAAATAAA [GTGCAC_negctrl_site437]”, the “gcPBM binding intensity (ln)” value turned out to be 6.45.

With “AGTCATTAAATATAATGTACATGGAAAAACAGCTGA [XGTACX_site7944]”, the “gcPBM binding intensity (ln)” value was 6.77. “GGAATATTTATACATACACACATATATTTATTTATA [CACACA_site6883]”: the “gcPBM binding intensity (ln)” value turned out to be 6.61. Consider “CAAGCACCCAGACACACACACACACCCACACCCACA [CACACA_site369]”, for which the “gcPBM binding intensity (ln)” value turned out to be 6.31. Consider “ATAAAAATAACATATAAACACACATATATATATATA [CACACA_site9267]”, for which the “gcPBM binding intensity (ln)” value worked out at 9.12. On to “AATATAAACATAGATAGATAAATAAATAAATAAACA [GTGCAC_negctrl_site567]”, for which the “gcPBM binding intensity (ln)” value turned out to be 6.42.
